# Data reported in PMC4336329 (PLoS ONE, 2015).
# About 14,000 (4.5%) of roughly 310,000 compounds showed an effect of 50% or more. The effect is printed as a negative number. The list shows a part of the results.
# Target: human ether-à-go-go-related gene (hERG) potassium channel (human, UniProt Q12809)
# Assay: primary screen, population patch clamp on CHO cells stably expressing hERG
# 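Note: peak tail current of the secondary pulse compared with the same well before compound.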
# Sequence of human ether-à-go-go-related gene (hERG) potassium channel (Q12809 whole entry, looked up): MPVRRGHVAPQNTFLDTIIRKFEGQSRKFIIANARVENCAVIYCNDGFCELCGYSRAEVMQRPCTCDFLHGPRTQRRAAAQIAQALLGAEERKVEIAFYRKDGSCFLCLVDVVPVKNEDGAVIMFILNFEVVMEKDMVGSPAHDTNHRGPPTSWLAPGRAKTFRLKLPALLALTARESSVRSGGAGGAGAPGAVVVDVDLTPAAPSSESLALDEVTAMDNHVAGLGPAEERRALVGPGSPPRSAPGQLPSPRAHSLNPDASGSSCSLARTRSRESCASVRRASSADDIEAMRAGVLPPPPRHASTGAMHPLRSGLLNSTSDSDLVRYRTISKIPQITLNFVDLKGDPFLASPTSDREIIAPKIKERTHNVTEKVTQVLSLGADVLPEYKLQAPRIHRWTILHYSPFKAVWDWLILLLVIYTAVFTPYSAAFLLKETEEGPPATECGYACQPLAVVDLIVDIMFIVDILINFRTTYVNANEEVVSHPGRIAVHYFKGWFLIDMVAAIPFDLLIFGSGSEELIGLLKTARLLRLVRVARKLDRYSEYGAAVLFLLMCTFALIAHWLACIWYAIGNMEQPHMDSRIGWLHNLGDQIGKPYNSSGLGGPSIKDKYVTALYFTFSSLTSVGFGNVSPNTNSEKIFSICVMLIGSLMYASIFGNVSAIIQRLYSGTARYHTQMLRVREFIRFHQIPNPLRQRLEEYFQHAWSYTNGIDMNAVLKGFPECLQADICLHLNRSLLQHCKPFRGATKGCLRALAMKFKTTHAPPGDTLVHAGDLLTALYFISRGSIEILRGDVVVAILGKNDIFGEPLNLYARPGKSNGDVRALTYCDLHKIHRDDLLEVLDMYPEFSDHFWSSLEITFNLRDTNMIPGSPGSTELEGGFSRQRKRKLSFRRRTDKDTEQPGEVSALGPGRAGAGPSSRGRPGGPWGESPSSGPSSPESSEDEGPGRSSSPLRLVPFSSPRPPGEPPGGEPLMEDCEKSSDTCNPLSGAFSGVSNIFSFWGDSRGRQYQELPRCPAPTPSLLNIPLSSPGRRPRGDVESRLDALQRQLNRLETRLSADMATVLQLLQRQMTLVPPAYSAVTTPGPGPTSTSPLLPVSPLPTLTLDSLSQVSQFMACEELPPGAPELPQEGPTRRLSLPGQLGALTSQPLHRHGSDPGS
row,SMILES,"hERG current change (%, negative = inhibition) at 10uM"
1,CCOC(=O)c1c(C)[nH]c(C)c1S(=O)(=O)NC(C)Cc1ccco1 (stereo not shown),5.27%
2,Cn1ncc(C#N)c1NC(=O)c1cc(-c2ccccc2Cl)on1,6.76%
3,Cc1ccc(S(=O)(=O)Nc2cc3c4c(c2)CCN4C(=O)CC3)cc1,-10%
4,CC(C)(C)OC(=O)NCCCC[C@H](NC(=O)c1[nH]cnc1C(=O)N[C@@H](Cc1ccccc1)C(=O)OC(C)(C)C)C(=O)OC(C)(C)C,1.54%
5,CCSc1nnc(NC(=O)C2Cc3ccccc3CN2C(=O)c2ccco2)s1 (stereo not shown),-10.3%
6,CCCCNS(=O)(=O)c1ccc(S(=O)(=O)n2cnc3ccccc32)cc1,16%
7,O=C(Nc1ccc(CN2CCS(=O)(=O)CC2)cc1)c1ccc(C(F)(F)F)cc1,-4.46%
8,CCN(CC(=O)NCCC1=CCCCC1)S(=O)(=O)c1ccccc1,-20.8%
9,CCOC(=O)c1cn(Cc2cccc(Cl)c2)nn1,-5.12%
10,CC1CCc2c(sc(NC(=O)c3ccc(Cn4cc(Br)cn4)o3)c2C(N)=O)C1 (stereo not shown),9.2%
11,Cc1nc(Nc2cccc(O)c2)c2c3c(sc2n1)CCC3,-1.85%
12,OCCC1CN(Cc2cnn(-c3ccccc3Cl)c2)CCN1Cc1ccsc1 (stereo not shown),-11.7%
13,Cn1[nH]c(C(F)(F)F)c(C=Nc2ccc(Cl)cc2)c1=O,2.79%
14,COCCCN1C(=O)/C(=C\c2cccs2)C(C(=O)OC)=C1C,-31.9%
15,COC(=O)CNC(c1ccccc1)c1cc(Br)ccc1NC(=O)CNC(=O)OCc1ccccc1 (stereo not shown),1.71%
16,CC(Sc1ccccc1)C(=O)N/N=C/c1ccccc1 (stereo not shown),-4.23%
17,CC1(c2ccc(OC(F)F)cc2)NC(=O)N(CC(=O)Nc2ccc(Cl)cc2F)C1=O (stereo not shown),-28%
18,O=C(O)c1ccc(CN2C(=O)c3ccccc3S2(=O)=O)cc1,16.4%
19,COC(/C=C/Nc1ccc(Br)cc1)=C(C#N)C#N,-39.3%
20,CCOCCn1c(SCCc2ccccc2)nc2c1c(=O)[nH]c(=O)n2C,-24%
21,Cc1cc(SCC#N)n2nc(C)c(-c3ccccc3)c2n1,-1.69%
22,COc1ccc(OC)c(CNC(=O)CCCn2ccc3cc(S(=O)(=O)N4CCCC4)ccc32)c1,-11.4%

row,SMILES,"hERG current change (%, negative = inhibition) at 10uM"
1,CCOC(=O)c1c(C)[nH]c(C)c1C(=O)CSc1nc2ccccc2c(=O)n1-c1ccccc1C,0.835%
2,C=CCn1c(COc2ccccc2)nnc1SCC(=O)N/N=C/c1ccc(C)cc1,-39.9%
3,Cc1ccc([N+](=O)[O-])c(OCCN2CCc3ccccc3C2)c1.O=C(O)C(=O)O,-23.3%
4,CC(C)c1ccc(OCC(=O)Nc2ccncc2)cc1,-8.44%
5,c1ccc2c(c1)sc1nnnn12,-1.4%
6,C/C(=N\NS(=O)(=O)c1ccc(Cl)c([N+](=O)[O-])c1)c1ccc(C)o1,3.01%
7,Cn1c(SCC(=O)c2ccccc2)nnc1-c1cccs1,-20.2%
8,Cc1ccc(N=Cc2c(O)n(-c3cc(Cl)ccc3N3CCOCC3)c(=O)c3ccccc23)cc1C,3.86%
9,O=C(COc1ccc2ccc(=O)oc2c1)N1CCc2ccccc21,4.35%
10,O=c1c2cc(Br)ccc2nc(-c2ccc([N+](=O)[O-])cc2)n1O,41.4%
11,CCOC(=O)N1CCN(C(=O)c2ccccc2NC(C)=O)CC1,11.2%
12,CN(Cc1ccccc1)Cc1nc2c([nH]1)c(=O)n(C)c(=O)n2C,-0.0888%
13,CC(=O)Nc1ccc(CN2CCC(CO)(CCOc3ccccc3)CC2)cc1,-69.9%
14,CCOC(=O)N1CCN(C(=O)CSC2=NS(=O)(=O)c3cc(Cl)ccc3N2)CC1,17.5%
15,CC1(C)CC(=O)C(C(N)=NC(=O)c2ccccc2)=C(O)C1,11.4%
16,CCCc1nc2ccccc2c(=O)n1CC(=O)c1ccccc1,-3.78%
17,Cc1nnc(SCC(=O)NC(C)(C)C)n1NCc1c(F)cccc1Cl,10.5%
18,Cc1ccc(C(=O)Nc2ccccc2C(=O)N2CCCCCC2)cc1,-1.97%
19,COc1cc(C(C(=O)NC2CCCCC2)N(Cc2ccco2)C(=O)c2cnccn2)cc(OC)c1OC (stereo not shown),21.4%
20,COc1cccc(C(=O)Nc2ccc(N(C)C)cc2)c1OC,16.2%
21,O=C(CC1Oc2ccccc2NC1=O)NCCCN1CCN(C2CCCCC2)CC1 (stereo not shown),-3.28%
22,COc1ccc(CCN(C)C(=O)c2cncc(Br)c2)cc1OC,30.1%

row,SMILES,"hERG current change (%, negative = inhibition) at 10uM"
1,CC(C)Oc1ccc(CNC(=S)N/N=C/c2cccnc2)cc1,2.73%
2,CCOC(=O)Cc1c(Sc2ccccc2)c2cc(C)ccc2n1C,-6.46%
3,O=[N+]([O-])c1cccc(/C=N/Nc2nc(C(Cl)(Cl)Cl)nc3ccccc23)c1,0.843%
4,O=C(OC1CCCCC1=O)c1ccc(S(=O)(=O)Nc2ccccc2)cc1 (stereo not shown),0.644%
5,O=C(Cc1ccc(F)cc1)Nc1ccccc1Sc1ccccc1,1.73%
6,COc1ccc(Cl)cc1NC(=O)CN(C)C(=O)CCCc1c[nH]c2ccccc12,1.11%
7,COc1cc2nc(CN3CCC(C(O)(c4ccccc4)c4ccccc4)CC3)[nH]c(=O)c2cc1OC,-7.94%
8,Cc1cccc(NCc2ccccc2O)c1C,6.38%
9,COC(=O)C(C)Sc1nnc(Cc2cc(=O)[nH]c(=O)[nH]2)n1-c1ccc(OC)cc1 (stereo not shown),-0.588%
10,O=C(Nc1cccc([N+](=O)[O-])c1)C12CC3CC(C1)CC(n1cnc([N+](=O)[O-])n1)(C3)C2,-67.8%
11,O=C(CC1Nc2ccccc2NC1=O)Nc1ccccc1NC(=O)CC1Nc2ccccc2NC1=O (stereo not shown),4.83%
12,CCOC(=O)c1ccccc1NC(=O)c1ccc(N(C)S(C)(=O)=O)cc1,13.6%
13,COc1ccc(C(CNC(=O)C(C)Oc2ccc(Br)cc2)N2CCCC2)cc1 (stereo not shown),-37.2%
14,Nc1c(-c2ccc(Cl)cc2)cnn1-c1ccccc1,11.2%
15,COc1ccc(NC(=O)CSCC(=O)Nc2sccc2C#N)cc1,1.85%
16,CC(=O)Nc1cc(NC(C)=O)c(CC(C)C)s1,10.8%
17,CC(CNC(=O)CCS(=O)(=O)c1cc2c(cc1Cl)NC(=O)CO2)c1ccccc1 (stereo not shown),-3.94%
18,COc1ccc(C(=O)COC(=O)C(CCSC)NC(=O)COc2ccccc2)cc1 (stereo not shown),-31.2%
19,Cc1sc2nc(CSc3n[nH]c(N)n3)[nH]c(=O)c2c1C,-1.74%
20,O=C(COc1ccc([N+](=O)[O-])cc1)Nn1cnnc1,17%
21,Cc1cccc(OCC(=O)NCCCNC(=O)c2ccco2)c1,3.51%
22,COc1ccc(OC)c(S(=O)(=O)N2CCCC(C(=O)NCCN3CCOCC3)C2)c1 (stereo not shown),21.2%

row,SMILES,"hERG current change (%, negative = inhibition) at 10uM"
1,c1ccc(CN2c3ccccc3-c3nc4ccccc4n3C2c2ccccn2)cc1 (stereo not shown),-6.27%
2,CN1CCN(S(=O)(=O)c2ccc(N(C)Cc3cccc(F)c3)nc2)CC1,-5.07%
3,C=CCOc1ccc(/C(O)=C2/C(=O)C(=O)N(CCCn3ccnc3)C2c2ccco2)cc1 (stereo not shown),23%
4,N#Cc1c(-c2ccccc2)cc(C2CC2)nc1SCC(=O)O,10.2%
5,O=C(CN1c2cccc3cccc(c23)S1(=O)=O)Nc1cccc(S(=O)(=O)N2CCOCC2)c1,-1.33%
6,O=C(/C=C/c1ccc(O)cc1)OCc1occc(=O)c1O[C@@H]1OC(CO)[C@@H](O)[C@H](O)[C@@H]1O (stereo partly shown),17.3%
7,Cc1ccc(NC(=O)CC(NCCN2CCOCC2)C(=O)O)cc1Cl (stereo not shown),14.3%
8,CCCCNC(=O)C(CC)Sc1nc2sc(C(=O)OC)c(C)c2c(=O)n1N (stereo not shown),-7.81%
9,O=C(N/N=C/c1ccc2c(c1)OCO2)c1ccc(COc2cccc3cccnc23)cc1,-18.6%
10,CCCCCCC1(C)NC(=S)N(c2ccccc2)N1 (stereo not shown),4.15%
11,Cc1nnc(SCCC(=O)Nc2ccc(Cl)cc2)o1,17.4%
12,CCN(CC)S(=O)(=O)c1cc(NC(=O)CNc2c(C)n(C)n(-c3ccccc3)c2=O)ccc1C,14.4%
13,C#CC(=O)N(c1ccc(OC)cc1OC)C(C(=O)NC1CCCC1)c1cccs1 (stereo not shown),-1.28%
14,Cc1ccc(NC(=O)c2cc([N+](=O)[O-])ccc2NCc2cccnc2)cc1,-82.7%
15,Cc1cc(C)nc(SCc2nc3nc(C)cc(C)n3c2Br)n1,-22.6%
16,CN(C)S(=O)(=O)N1CCCC(C(=O)c2ccc(-c3ccccc3)cc2)C1 (stereo not shown),6.78%
17,CN(C(=O)COC(=O)c1cnc(Cl)c(Cl)c1)C1CCS(=O)(=O)C1 (stereo not shown),2.87%
18,CCN(CC)C(=O)c1ccc(NC(=O)c2ccc(-c3nn(C)c(=O)c4ccccc34)cc2)cc1,8.63%
19,CCC(c1nnc(SCC(=O)N2CC3(C)CC2CC(C)(C)C3)o1)N(C)C (stereo not shown),4.96%
